# In PubChem BioAssay (NCATS):
# “And” between values parts separate entries of the source, which are not always exact repeats. Equal entries are not always repeated. Inconclusive means that the source gave no clear call. Such entries were picked first, then a sample of the others. A potency beside an inconclusive call is a rough fit, not a confirmed value. The source made the active and inactive calls. Calls come from the whole dose curve; as a rule, active = well fitted cell-killing curve with a large enough effect; inconclusive = small, poorly fitted or top-dose-only effect; inactive = no such curve, though single readings can be large or run the other way.
# Assay: qHTS of pediatric cancer cell lines to identify multiple opportunities for drug repurposing: Primary screen for NB-EBc1 cells (AID 1347095)
# Details: NB-EBc1 neuroblastoma viability, CellTiter-Glo luminescence, 48 h; series mostly up to 46 µM; activity change, negative = cytotoxic: at the top concentration
# Source text: Drug repurposing or repositioning has been offered as a strategy for drug development in oncology programs. This approach has special potential for childhood cancers and other rare or orphan diseases, where the expected return on new drug development has been a disincentive to pharmaceuticals. […] In this project we exploit the poly-pharmacology of drugs to discover new indications via phenotypic screening of a panel of 19 well-characterized cell lines derived from solid tumors seen in children and adolescents. The goal is to identify approved drugs with previously unrecognized anticancer properties that has the potential to reveal new mechanisms and biological processes involved in carcinogenesis or drug resistance. We employed a titration-based paradigm (quantitative high-throughput screening or qHTS), where all compounds were tested at multiple concentrations for their effect on cell viability. Concentration-response curves (CRCs) were derived directly from the primary screen, and both potency and efficacy values were used to identify compounds with robust bioactivity profiles. We screened the NIH Chemical Genomics Center (NCGC) Pharmaceutical Collection (NPC) and Mechanism Interrogation Plate (MIPE) small molecule collections of approved and investigational compounds against these cell lines; and measured metabolically active cells after 48 hours of compound treatment as a proxy for cell viability. […] Assay Submitter: Nathalia J. Martinez, National Center for Advancing Translational Sciences, National Institutes of Health, Rockville, MD, USA; email: natalia.martinez@nih.gov Shen, M et al. Quantitative high-throughput phenotypic screening of pediatric cancer cell lines identifies multiple opportunities for drug repurposing. Oncotarget 2017 Dec 19;9(4):4758-4772. PMID 29435139.
# The cells were obtained from University of North Carolina (UNC), Pediatric Preclinical Testing Program (PPT), and Coriell Institute (CI). qHTS cell viability assay: Cells were assayed in growth media at a density of 500-1,000 cells/well. Five microliters of cells were dispensed into 1,536-well, white, solid-bottom, TC-treated plates (Greiner Bio One) using a multidrop dispenser and incubated at 37 degrees C, 5% CO2, under a humidified atmosphere for 5 hours. Twenty-three nanoliters of compounds and controls (neutral control DMSO or positive control bortezomib at final concentration of 2.3 µM) were subsequently transferred by Kalypsys pintool. For primary screens, the MIPE collection was tested at 11-point dilutions (final concentrations range from 0.78 nM to 46 µM) and the NPC collection at 8-point dilutions (final concentrations range from 0.59 nM to 46 µM). Compounds tested in follow-up screens were assayed at 11-point dilutions. Cells were incubated for 48 hours, followed by addition of 3 µL of CellTiter-Glo (Promega). After a 15 min incubation at room temperature, samples were analyzed for luminescence intensity using a ViewLux High-throughput CCD imager equipped with clear filters.
# Potency is the fitted concentration of half-maximal effect; tags give direction and shape of the fitted curve.
SMILES,Potency,"activity change, negative = cytotoxic"
O=C1NC(=O)C(=Cc2ccc(-c3ccc(F)cc3O)o2)S1,active: 5.26 µM,–
CCCCN(CCCC)CCC(O)c1cc2c(Cl)cc(Cl)cc2c2cc(C(F)(F)F)ccc12 (stereo not given),inactive,–
Nc1cc(C(F)(F)F)ccc1S,"inconclusive: 23.7 µM [cytotoxic, single point]",–
NC(=O)c1ccc(-c2nc(-c3ccc4c(c3)OCCO4)c(-c3ccccn3)[nH]2)cc1,"inconclusive: 18.7 µM [cytotoxic, partial curve, poor fit]",–
CC1Cc2ccccc2N1NC(=O)c1ccc(Cl)c(S(N)(=O)=O)c1 (stereo not given),inactive,–
Cc1nc2ccccc2n1Cc1ccc(Cl)cc1,"inconclusive: 9.44 µM [cytotoxic, partial curve]",–
CC(C)c1ccc2c(c1)c(SC(C)(C)C)c(CC(C)(C)C(=O)O)n2Cc1ccc(Cl)cc1,"inconclusive: 26.4 µM [cytotoxic, single point]",–
CN1CCC[C@@H]1Cc1c[nH]c2ccc(CCS(=O)(=O)c3ccccc3)cc12,–,inactive: 9.95%
c1ccc2sc(SN3CCOCC3)nc2c1,–,inactive: 8.69%
OCc1cc(C(O)CNCCCCCCOCCCCc2ccccc2)ccc1O (stereo not given),"inconclusive: 33.5 µM [cytotoxic, partial curve, poor fit]",–
CC(=O)Oc1cc2c(s1)CCN(C(C(=O)C1CC1)c1ccccc1F)C2 (stereo not given),active: 3.72 µM,–
CCc1ccc(OCc2ccccc2C(=O)Nc2ccc3nc(C)cc(N)c3c2)cc1,"inconclusive: 29.6 µM [cytotoxic, single point]",–
Oc1ccc(C2=Cc3ccc(O)cc3OC2)cc1,active: 1.66 µM,–
Cc1ccc(F)c(NC(=O)Nc2ccc(-c3cccc4[nH]nc(N)c34)cc2)c1,"inconclusive: 26.4 µM [cytotoxic, single point]",–
CC(C)CNc1ccnc(NCc2csc(-c3ccccc3)n2)n1,"inconclusive: 20.9 µM [cytotoxic, single point]",–
CN(C1CCc2c(c3ccccc3n2CC(=O)O)C1)S(=O)(=O)c1ccc(F)cc1 (stereo not given),"inconclusive: 16.6 µM [cytotoxic, partial curve]",–
NC(CO)(CO)CCc1ccc(Sc2cccc(OCc3ccccc3)c2)cc1Cl,active: 1.87 µM,–
N#Cc1ccc(NC(=O)Nc2ccccc2Br)c2n[nH]nc12,"inconclusive: 33.2 µM [cytotoxic, single point]",–
CO[C@H]1C[C@@H]2CC[C@@H](C)[C@@](O)(O2)C(=O)C(=O)N2CCCC[C@@H]2C(=O)O[C@H]([C@H](C)C[C@@H]2CC[C@H](OCCO)[C@H](OC)C2)CC(=O)[C@H](C)C=C(C)[C@@H](O)[C@@H](OC)C(=O)[C@H](C)C[C@H](C)C=CC=CC=C1C,"inconclusive: 2.64 µM [cytotoxic, partial curve]",–
Cc1cc(O)c2c(c1)C(=O)c1cc(O)cc(O)c1C2=O,"inconclusive: 20.9 µM [cytotoxic, partial curve]",–

SMILES,Potency,"activity change, negative = cytotoxic"
CCN(CC)C(=S)SSC(=S)N(CC)CC,"inconclusive: 29.9 µM [cytotoxic, single point]",–
CC(=O)Oc1cccc2c1C(=O)c1c(OC(C)=O)cc(C(=O)O)cc1C2=O,"inconclusive: 33.5 µM [cytotoxic, single point]",–
O=c1c(-c2ccc(O)cc2)coc2cc(OC3O[C@H](CO)[C@H](O)[C@H](O)[C@H]3O)cc(O)c12 (stereo not given in full),active: 18.7 µM,–
CN(C)c1ccc(N=NS(=O)(=O)O)cc1,–,inactive: 33.8% [at 92.7 µM]
CN(Cc1cc(Br)cc(Br)c1N)C1CCCCC1,"inconclusive: 21.1 µM [cytotoxic, partial curve, poor fit] and inconclusive: 23.5 µM [cytotoxic, single point]",–
COc1cc(Oc2ccnc3cc(OC)c(OC)cc23)ccc1NC(=O)NC(C)c1nccs1 (stereo not given),"inconclusive: 9.35 µM [cytotoxic, full curve]",–
CC(C)(C)c1ccc(O)c(O)c1,active: 6.11 µM,–
Cc1ccccc1C(C(=O)NC1CCCCC1)N(C(=O)Cn1ccnc1C)c1cccc(F)c1 (stereo not given),"inconclusive: 18.7 µM [cytotoxic, partial curve, poor fit]",–
Nc1ccccc1N,"inconclusive: 34.4 µM [cytotoxic, single point]",–
CC1(C)CCC2=C(O1)c1ccccc1C(=O)C2=O,active: 18.7 µM,–
COC(=O)C1=C(C)NC(C)=C(C(=O)OCC(C)C)C1c1ccccc1[N+](=O)[O-] (stereo not given),"inconclusive: 23.7 µM [cytotoxic, single point]",–
Nc1nc(F)nc2c1ncn2[C@@H]1O[C@H](COP(=O)(O)O)[C@@H](O)[C@H]1O,active: 0.935 µM,–
CC(=O)Nc1ccc(O)cc1,"inconclusive: 20.9 µM [cytotoxic, partial curve]",–
Oc1ccc(OCc2ccccc2)cc1,"inconclusive: 14.8 µM [cytotoxic, partial curve]",–
Cc1c(Nc2ncccc2C(=O)O)cccc1C(F)(F)F,"inconclusive: 29.9 µM [cytotoxic, single point]",–
O=C(CS)Nc1ccccc1,"inconclusive: 33.5 µM [cytotoxic, single point]",–
N=c1ccn2c(n1)O[C@H]1[C@@H](O)[C@@H](CO)O[C@H]12,active: 11.8 µM,–
COc1cccc(-c2ccc(NC(=O)C3=C(C(=O)O)CCC3)c(F)c2)c1,active: 3.72 µM,–
CCCn1c(=O)c2[nH]c(C34CC5CC3C[C@@H](C5)C4)nc2n(CCC)c1=O,"inconclusive: 18.7 µM [cytotoxic, partial curve]",–
CCCCc1oc2ccccc2c1C(=O)c1cc(I)c(OCCN(CC)CC)c(I)c1,"inconclusive: 33.5 µM [cytotoxic, single point]",–
